Laboratory results as given in article PMC7062751.
No constants are given. Whether binding was seen depends on the method and setting. For some of these results: Binding seen in cells or lysates may run through a third protein. Some binding calls cover weakened binding; strength is not graded here. Each block holds one substance with its values, some of them ahead of it.

The chains behind the UniProt entries cited, without tags or fusion partners. Where a name states a change or a piece, a line headed by the entry shows the natural chain unless it says otherwise. A line that says so, or that is headed by a name, gives the form on record, which may keep a tag or linker.
UniProt Q9Y6I9: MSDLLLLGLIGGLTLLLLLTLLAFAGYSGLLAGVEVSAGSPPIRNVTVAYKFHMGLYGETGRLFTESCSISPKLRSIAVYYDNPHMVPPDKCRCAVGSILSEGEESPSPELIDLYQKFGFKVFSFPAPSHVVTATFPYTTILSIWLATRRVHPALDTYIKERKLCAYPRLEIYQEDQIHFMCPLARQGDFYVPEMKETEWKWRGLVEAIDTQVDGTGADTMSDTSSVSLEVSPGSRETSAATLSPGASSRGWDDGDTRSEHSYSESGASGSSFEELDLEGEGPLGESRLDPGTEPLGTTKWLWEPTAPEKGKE
p97 E578Q-myc-Strep (ATPase-defective, substrate-trapping variant) (P55072, form named): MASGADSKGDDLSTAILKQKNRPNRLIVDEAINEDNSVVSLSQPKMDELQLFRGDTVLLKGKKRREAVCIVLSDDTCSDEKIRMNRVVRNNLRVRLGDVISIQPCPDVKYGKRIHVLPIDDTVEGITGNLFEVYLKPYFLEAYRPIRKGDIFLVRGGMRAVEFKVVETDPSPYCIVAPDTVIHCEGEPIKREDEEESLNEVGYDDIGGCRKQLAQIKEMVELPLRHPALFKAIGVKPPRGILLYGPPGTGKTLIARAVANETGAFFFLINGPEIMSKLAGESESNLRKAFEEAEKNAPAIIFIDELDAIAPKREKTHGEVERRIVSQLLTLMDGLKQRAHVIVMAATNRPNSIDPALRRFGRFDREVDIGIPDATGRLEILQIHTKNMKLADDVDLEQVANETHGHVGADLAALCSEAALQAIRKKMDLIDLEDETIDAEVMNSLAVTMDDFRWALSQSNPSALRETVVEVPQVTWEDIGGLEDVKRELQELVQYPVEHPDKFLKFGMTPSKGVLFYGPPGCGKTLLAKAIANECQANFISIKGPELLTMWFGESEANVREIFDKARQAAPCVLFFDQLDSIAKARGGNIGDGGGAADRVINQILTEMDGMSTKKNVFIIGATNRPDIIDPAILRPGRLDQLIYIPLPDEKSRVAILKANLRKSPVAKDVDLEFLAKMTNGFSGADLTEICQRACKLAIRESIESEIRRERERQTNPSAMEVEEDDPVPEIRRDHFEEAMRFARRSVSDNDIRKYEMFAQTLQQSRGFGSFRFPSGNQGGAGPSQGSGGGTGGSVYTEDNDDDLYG
UniProt P12004: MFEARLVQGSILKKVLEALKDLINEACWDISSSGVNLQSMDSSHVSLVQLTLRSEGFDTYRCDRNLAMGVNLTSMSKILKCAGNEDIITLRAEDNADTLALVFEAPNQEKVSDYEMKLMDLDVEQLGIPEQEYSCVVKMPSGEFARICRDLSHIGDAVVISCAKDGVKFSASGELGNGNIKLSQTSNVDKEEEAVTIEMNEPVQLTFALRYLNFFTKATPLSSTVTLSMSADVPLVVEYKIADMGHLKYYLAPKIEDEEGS
UniProt P11387: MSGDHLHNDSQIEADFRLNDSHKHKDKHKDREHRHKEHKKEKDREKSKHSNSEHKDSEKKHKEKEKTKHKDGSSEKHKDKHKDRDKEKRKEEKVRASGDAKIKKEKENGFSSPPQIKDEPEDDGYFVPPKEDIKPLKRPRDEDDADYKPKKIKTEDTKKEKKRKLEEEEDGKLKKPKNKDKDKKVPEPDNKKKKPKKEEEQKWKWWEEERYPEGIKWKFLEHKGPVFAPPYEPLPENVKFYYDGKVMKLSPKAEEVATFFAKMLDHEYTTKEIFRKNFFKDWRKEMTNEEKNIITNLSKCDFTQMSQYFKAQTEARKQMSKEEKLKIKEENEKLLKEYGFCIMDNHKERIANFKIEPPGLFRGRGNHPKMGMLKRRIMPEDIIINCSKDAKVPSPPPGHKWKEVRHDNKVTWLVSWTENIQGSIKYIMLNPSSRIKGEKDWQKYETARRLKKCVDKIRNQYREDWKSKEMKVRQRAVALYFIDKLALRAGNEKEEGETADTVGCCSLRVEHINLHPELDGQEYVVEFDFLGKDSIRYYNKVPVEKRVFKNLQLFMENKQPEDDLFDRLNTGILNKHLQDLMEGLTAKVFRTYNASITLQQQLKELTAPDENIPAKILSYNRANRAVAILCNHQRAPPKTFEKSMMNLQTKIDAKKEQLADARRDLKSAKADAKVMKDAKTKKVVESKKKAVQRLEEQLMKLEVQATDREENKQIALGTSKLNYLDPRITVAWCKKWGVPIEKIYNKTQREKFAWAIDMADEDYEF

Experiments:
[1] = target: TEX264-SSH (UniProt Q9Y6I9); test: co-IP; anti-Strep-tag immunoprecipitates from doxycycline-inducible TEX264-SSH HEK293 Flp-In TRex cells, with and without Dox, immunoblot
[2] = target: TEX264-FLAG, wild type (UniProt Q9Y6I9); test: condition: only after treatment of the cells with 1 µM CPT for 1 h; co-IP; FLAG immunoprecipitates of TEX264-FLAG from HEK293 cells treated with 1 µM CPT for 1 h
[3] = target: TEX264-FLAG, wild type (UniProt Q9Y6I9); test: co-IP; anti-FLAG M2 agarose on lysates of HEK293 or ΔTEX264 HEK293 cells expressing FLAG-tagged TEX264 variants; Benzonase, ethidium bromide; cells treated with DMSO or CPT (25 nM, 1 h)
[4] = target: recombinant p97-S tag (human) (UniProt P55072); test: pull-down; p97-S tag coupled to S-protein Agarose, incubated 2 h with TEX264^WT, TEX264^ΔSHP and/or recombinant TOP1; 137 mM NaCl, 20 mM Tris–HCl pH 7.0, 0.5% Triton X-100; 4 °C coupling; both purified
[5] = target: T1, SPRTN-SSH (UniProt Q9H040); test: co-IP; anti-Strep-tag immunoprecipitates from extracts of HEK293 cells expressing SPRTN-SSH, control or TEX264 siRNA
T1 sequence: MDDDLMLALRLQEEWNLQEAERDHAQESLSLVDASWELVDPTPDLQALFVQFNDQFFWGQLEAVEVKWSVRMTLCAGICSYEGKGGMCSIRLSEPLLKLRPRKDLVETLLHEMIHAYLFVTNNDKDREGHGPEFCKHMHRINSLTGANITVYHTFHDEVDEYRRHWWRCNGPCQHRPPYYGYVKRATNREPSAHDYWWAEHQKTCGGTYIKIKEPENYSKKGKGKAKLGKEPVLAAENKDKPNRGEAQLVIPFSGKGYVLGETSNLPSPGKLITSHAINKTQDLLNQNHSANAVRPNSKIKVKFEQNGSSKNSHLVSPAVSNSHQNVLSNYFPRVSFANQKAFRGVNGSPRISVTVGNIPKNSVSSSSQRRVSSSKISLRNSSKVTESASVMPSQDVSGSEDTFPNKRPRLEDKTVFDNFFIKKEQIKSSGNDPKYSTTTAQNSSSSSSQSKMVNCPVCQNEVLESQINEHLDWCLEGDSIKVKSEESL

[6] = target: p97 E578Q-myc-Strep (ATPase-defective, substrate-trapping variant) (UniProt P55072); test: co-IP; Strep-Tactin Sepharose on lysates of HEK293 cells (wild type or ΔTEX264) expressing p97-myc-Strep variants; Benzonase, ethidium bromide; cells untreated or treated with DMSO, CPT (50 nM), CB-5083 (10 µM)
[7] = target: p97-myc-Strep, wild type (UniProt P55072); test: as above
[8] = target: TEX264 E194A-FLAG (UniProt Q9Y6I9); test: co-IP; anti-FLAG M2 agarose on lysates of HEK293 or ΔTEX264 HEK293 cells expressing FLAG-tagged TEX264 variants; Benzonase, ethidium bromide; cells treated with DMSO or CPT (25 nM, 1 h)

binding [5]: binds
binding [6]: binds
binding [7]: binds
Substance: Testes-expressed 264 (endogenous TEX264) (from UniProt Q9Y6I9 1-313)

binding [1]: binds
Substance: PCNA (endogenous) (from UniProt P12004 1-261)

The next lines start with the substance.

Substance: Topoisomerase 1 (endogenous TOP1) (from UniProt P11387 1-765)
binding [1]: binds
binding [2]: no binding
binding [3]: binds

Substance: recombinant TOP1 (from UniProt P11387 1-765)
binding [4]: binds weakly

Substance: p97 ATPase (endogenous) (from UniProt P55072 1-806)
binding [5]: binds
binding [1]: binds
binding [8]: binds
binding [3]: binds

Substance: Modified species of TOP1 (from UniProt P11387 1-765)
binding [3]: binds
